# Whole data set: some 81,000 sequences, median “one-hybrid fitness for binding NBS DNA” near -0.1, cut for the highest 2% near 0.36. This is one part of the list.
# B1: Caulobacter ParB omega fusion; a variant is named by its letters at X, in order, B8GW30 (parent)
# chain: MESVVVGEPGMSEGRRGLGRGLSALLGEVDAAPAQAPGEQLGGSREAPIEILQRNPDQPRRTFREEDLEDLSNSIREKGVLQPILVRPSPDTAGEYQIVAGERAWRAAQRAGLKTVPIMVRELDDLAVLEIGIIENVQRADLNVLEEALSYKVLMEKFERTQENIAQTIGKSXSHVANXMRLLXLPDEVQSYLVSGELTAXHARAIAAAADPVALAKQIIEGGLSVRETEALARKAPNLSAGKSKGGRPPRVKDTDTQALESDLSSVLGLDVSIDHRGSTGTLTITYATLEQLDDLCNRLTRGI
# Variants of: B1
# Test: one-hybrid fitness for binding NBS DNA (the Noc-binding site; scaled: cognate 1, non-cognate 0); higher = stronger binding
# Settings: with NBS DNA site
# In short: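 In E. coli USO, a HIS3 reporter with its site placed 19 bp from the promoter was used to select Caulobacter ParB variants randomised at four specificity codons. Growth lasted 48 hours at 37°C on histidine-free M9 containing 0.1 mM IPTG and 5 mM 3-AT. Fitness was taken as the log change in variant-to-wild-type read ratio from Illumina sequencing of pre- and post-selection plasmids, rescaled between the non-cognate and cognate sites.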
row,Variant,one-hybrid fitness for binding NBS DNA
1,KPES,≤ 0.2
2,PSHM,≤ 0.2
3,PQER,≤ 0.2
4,HLWL,≤ 0.2
5,YWST,≤ 0.2
6,EMVR,≤ 0.2
7,LLML,≤ 0.2
8,GQPY,≤ 0.2
9,SITV,≤ 0.2
10,NTTA,≤ 0.2
11,GLDT,≤ 0.2
12,NQHS,≤ 0.2
13,HMLS,≤ 0.2
14,FLNV,≤ 0.2
15,HSPC,≤ 0.2
16,HGTR,≤ 0.2
17,WVPF,≤ 0.2
18,ALKT,≤ 0.2
19,YHLG,≤ 0.2
20,PDRS,≤ 0.2
21,SMGL,≤ 0.2

row,Variant,one-hybrid fitness for binding NBS DNA
1,HDHC,≤ 0.2
2,DNFR,≤ 0.2
3,SFAW,≤ 0.2
4,WCRC,≤ 0.2
5,DNAR,≤ 0.2
6,PRSL,≤ 0.2
7,RWVD,≤ 0.2
8,PITG,≤ 0.2
9,GGKT,≤ 0.2
10,WRRM,≤ 0.2
11,LHDI,≤ 0.2
12,QRIC,0.303
13,NILN,≤ 0.2
14,TNGS,≤ 0.2
15,AHYS,≤ 0.2
16,PAFW,≤ 0.2
17,ACLG,≤ 0.2
18,SPQI,≤ 0.2
19,EPET,≤ 0.2
20,ATFW,≤ 0.2
21,NARA,≤ 0.2

row,Variant,one-hybrid fitness for binding NBS DNA
1,ARVN,≤ 0.2
2,RCSS,0.522
3,HMNI,≤ 0.2
4,CMNF,≤ 0.2
5,MVRL,≤ 0.2
6,PLIC,≤ 0.2
7,QEHI,≤ 0.2
8,DREK,≤ 0.2
9,FTPM,≤ 0.2
10,PCWL,≤ 0.2
11,TRTY,≤ 0.2
12,AQHY,≤ 0.2
13,YGQV,≤ 0.2
14,HIQS,≤ 0.2
15,AILA,≤ 0.2
16,QVTG,≤ 0.2
17,STAI,≤ 0.2
18,CLCA,≤ 0.2
19,ADGL,≤ 0.2
20,QTSG,≤ 0.2
21,HNER,≤ 0.2

row,Variant,one-hybrid fitness for binding NBS DNA
1,GMMS,≤ 0.2
2,TSLV,≤ 0.2
3,FMIS,≤ 0.2
4,EQCE,≤ 0.2
5,RNRM,≤ 0.2
6,QVHT,0.373
7,TDQG,≤ 0.2
8,SGRD,≤ 0.2
9,AHDL,≤ 0.2
10,FHKP,≤ 0.2
11,RVHP,≤ 0.2
12,LTSQ,≤ 0.2
13,WMHA,≤ 0.2
14,DTVM,≤ 0.2
15,RPRA,≤ 0.2
16,LRSD,≤ 0.2
17,HGKA,≤ 0.2
18,LQYR,≤ 0.2
19,SHST,≤ 0.2
20,KVNL,≤ 0.2
21,QMAD,≤ 0.2

# From a collection of fitness landscapes (doi:10.1016/j.celrep.2020.107928)
